# The supplement of paper PMC3334620
# Whole data set: some 33,000 sequences, median “E-score (-0.5 to 0.5)” near -0.054, cut for the highest 2% near 0.35. The list shows a part of the results.
# Biological target: T1, Stb5 (UniProt P38699)
# T1 sequence: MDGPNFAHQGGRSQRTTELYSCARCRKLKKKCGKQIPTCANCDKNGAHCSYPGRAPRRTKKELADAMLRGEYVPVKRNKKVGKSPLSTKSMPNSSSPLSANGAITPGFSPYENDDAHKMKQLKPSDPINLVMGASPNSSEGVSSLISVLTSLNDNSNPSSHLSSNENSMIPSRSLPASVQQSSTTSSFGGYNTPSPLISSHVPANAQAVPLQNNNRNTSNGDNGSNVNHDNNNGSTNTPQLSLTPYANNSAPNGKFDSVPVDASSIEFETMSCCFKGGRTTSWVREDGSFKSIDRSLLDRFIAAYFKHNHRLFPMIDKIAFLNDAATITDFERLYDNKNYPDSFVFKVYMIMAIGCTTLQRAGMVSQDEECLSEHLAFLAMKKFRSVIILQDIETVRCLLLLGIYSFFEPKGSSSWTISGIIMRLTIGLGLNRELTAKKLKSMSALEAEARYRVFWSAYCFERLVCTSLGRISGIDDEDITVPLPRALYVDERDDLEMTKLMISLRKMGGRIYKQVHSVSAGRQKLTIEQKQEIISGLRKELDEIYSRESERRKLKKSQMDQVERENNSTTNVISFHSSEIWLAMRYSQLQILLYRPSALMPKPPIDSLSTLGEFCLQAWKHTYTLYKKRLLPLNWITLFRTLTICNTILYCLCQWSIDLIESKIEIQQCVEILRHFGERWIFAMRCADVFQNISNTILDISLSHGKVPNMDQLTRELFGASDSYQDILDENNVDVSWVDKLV
# Assay: PBM E-score (8-mer binding enrichment) (E-score (-0.5 to 0.5)); higher = stronger / more preferred TF binding; most listed sequences are background and not binding sites
# Settings: protein concentration: 200 nM; construct: GST-full length
# Outline: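 Detection of bound protein used fluorescent anti-GST, with scans normalised by masliner. The proteins were GST-tagged yeast transcription factors applied at about 100-200 nM to universal all-10-mer Agilent arrays made double-stranded by primer extension. Each ungapped eight-base word, pooled with its reverse complement, was scored with an E-score from the Universal PBM Analysis Suite.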
row,Sequence,PBM E-score
1,TATAGAGA,-0.298
2,CGTGACAC,0.0335
3,AGCAGATG,-0.351
4,CCATTTCA,-0.268
5,GCAACGAC,-0.0149
6,CTCATGTA,-0.0741
7,AATCGAAA,-0.146
8,AAAGCGGG,0.297
9,AACGGCGT,0.348
10,CGACTTAG,-0.00588
11,AGTACGAG,0.00173
12,GCTAACTA,-0.0778
13,GCCCTAAA,0.131
14,ACTCTTCG,0.00681
15,GCCCCTTA,-0.0344
16,ACTAACAT,-0.0718
17,ACCAAACG,0.0282
18,CTACTGTC,-0.184
19,ACTCCAGT,-0.263
20,GAGTTTAC,0.115
21,GAGGTCCC,-0.19
22,ATATTACC,0.285
23,TGCGCACA,-0.0378
24,AATTATCG,-0.143
25,TACTAGTA,0.027

row,Sequence,PBM E-score
1,AATATAGC,0.0403
2,AGAAGAAA,-0.168
3,GCTAGCAA,-0.095
4,CGCGGGGC,0.321
5,AATCGGGG,0.372
6,GAGTTCGA,-0.0998
7,GCTCTCGA,-0.189
8,ACATAGGA,-0.0626
9,ACTAGAGC,-0.249
10,CAGCCGCC,0.0327
11,CAATCCTG,-0.186
12,CACTCCGG,0.219
13,CGCCGGAC,0.396
14,ATGGCTGA,-0.346
15,AATCGAAG,-0.124
16,TAGCGAGA,-0.0466
17,CCGATGCC,0.288
18,ATTTGCGG,0.209
19,AGCCTAGC,-0.134
20,AACCCTCT,-0.263
21,CCGCGTCA,0.0384
22,AGACCCGA,0.287
23,TGCTACCA,-0.134
24,CTACACTC,-0.0452
25,TAGCACGA,-0.075

row,Sequence,PBM E-score
1,ACCTCTTG,-0.0574
2,AACCCGAA,0.128
3,ATTAGACC,0.213
4,CCGCAAAA,0.192
5,CGGGCCCA,0.328
6,AGGACCCC,-0.0587
7,CCGATTCA,0.15
8,CAACGACC,0.02
9,GTGGGAAA,-0.116
10,CTCACCCA,-0.23
11,CCGGGTAC,0.25
12,ATTAGTAG,-0.165
13,GACTATCC,0.0813
14,CAGAGACA,-0.213
15,AACAACTT,-0.0677
16,GCCACGGA,0.173
17,CTCCCATC,-0.00999
18,ACACCTCT,-0.134
19,GAATTAGA,-0.0146
20,ACACTTTG,-0.108
21,ACAACTTC,-0.199
22,CGGCCTCA,0.363
23,AGCTCGTC,-0.113
24,TTATGAAA,0.119
25,GCTGCAAA,-0.0972

row,Sequence,PBM E-score
1,CCGAGGCC,0.0761
2,ATACTTCC,0.166
3,CAACTGTC,-0.096
4,GAATACTC,-0.0176
5,ACGTGGGG,-0.101
6,ATACGAGA,-0.271
7,GACTGGGC,-0.113
8,GTCGATGA,-0.211
9,GCGAGGTA,-0.0571
10,CGATCTGC,0.156
11,CGTTGAAG,-0.204
12,ACAGGGGA,-0.11
13,AGTCAGCA,-0.17
14,TACGTGGA,0.0792
15,CCTTGTCC,-0.11
16,CTCTGCTC,-0.31
17,AGCTTAAT,-0.00951
18,CCTCTAGA,-0.183
19,ATACTTGC,-0.0909
20,GCGAGTAC,-0.0625
21,AGGCTTTG,-0.215
22,CCGTGACA,0.168
23,CGGGTGGC,0.0399
24,GATCTGTA,-0.143
25,GTATCTGA,-0.188

row,Sequence,PBM E-score
1,AGGTCATG,-0.219
2,AGGTCAGA,-0.142
3,TTAGTCAA,-0.163
4,ATGCTCGG,0.0371
5,CTCCCGGC,0.166
6,AAGTGGAT,-0.0158
7,AAACGTCT,-0.292
8,CGTTGTCA,-0.0225
9,AAACGGAA,0.182
10,GCGGAGGA,0.213
11,CCTATGGA,-0.0247
12,ACGCGTGG,-0.055
13,CAACTAAC,0.184
14,CCAGACGC,-0.137
15,CCTGGTGC,0.0141
16,TGCCCAAA,-0.204
17,AACCTAAC,0.00083
18,AAGGTGGG,-0.198
19,GGCATTTA,0.29
20,CCAGATAA,0.0381
21,ACCCTGCG,-0.165
22,AAGTGCCT,-0.29
23,ATGAGCTG,-0.181
24,AGCACTAC,-0.145
25,ATGTGTAC,-0.257

row,Sequence,PBM E-score
1,CAAGCAGA,-0.214
2,ATAGCGCC,0.361
3,ATTAGCTA,-0.323
4,CAACCGGC,0.303
5,ATTCGCCC,0.125
6,AAATGAAG,-0.0745
7,ACAAACCA,-0.256
8,AACGCGCA,-0.242
9,ACTGCTGA,-0.245
10,GCCATCTA,-0.119
11,CCTGTAGA,-0.172
12,AGAATAAG,0.0311
13,AGATCAAA,-0.058
14,ATACCCTG,-0.0145
15,CTGAGTAA,-0.22
16,ACTCCACG,-0.0714
17,ATAATAAC,0.185
18,CTAAGCCA,-0.252
19,AAAAAATT,-0.124
20,AGTCCCAG,-0.293
21,GGGCCGCA,0.232
22,CCGTTAAC,0.281
23,CTCCTTGA,0.0227
24,AGTTGGAC,-0.17
25,ACGAGTAT,-0.129

row,Sequence,PBM E-score
1,GGCAATCA,-0.0494
2,CATGTTGG,0.0872
3,ACCAAGCT,-0.228
4,CACCAGGG,-0.284
5,AAGCGTAC,-0.289
6,AATCTATA,0.027
7,ATAGGATG,-0.144
8,AGCGAGGC,-0.164
9,CGGGGTGA,0.432
10,CACGTACA,-0.211
11,AGTCCGCC,0.42
12,ATAGTAAG,-0.138
13,GACTTCGA,-0.104
14,GCGAGTTA,-0.111
15,CAGCTTCG,-0.0878
16,GATTTAGA,0.0334
17,CGCAACCG,0.181
18,AAGCTTAC,-0.155
19,TCGGTGAA,0.269
20,TAACATGA,-0.0944
21,CGCCCTGC,0.0443
22,GAGGGAGA,-0.29
23,AAAACCTC,0.0839
24,CAGTGCTC,-0.266
25,ATTAAGCA,-0.0755

row,Sequence,PBM E-score
1,ACTGTGCA,-0.187
2,CCTTTTTA,-0.015
3,CGAGGTTA,0.0887
4,TGAGGCCA,-0.344
5,CGTAAATC,0.0199
6,AGCCTACG,-0.216
7,CATTGGAC,-0.19
8,CATCCCTC,-0.122
9,ATCATTGG,-0.252
10,TAATTAAA,-0.168
11,GGAGTCCA,0.0404
12,TAAATGCA,-0.18
13,AGTCAGAG,-0.105
14,TAATCGCA,-0.0155
15,AGCGTTGC,-0.065
16,AAGAGAAG,-0.293
17,CAACGGCG,0.272
18,AGTGTTGC,-0.283
19,TAGAACGA,-0.233
20,ACTCACCC,0.0247
21,ACTCCGCC,0.384
22,ACGACAGG,-0.0875
23,AGGTTCGC,-0.245
24,AATATGTA,0.043
25,CAAGTGAA,-0.152

row,Sequence,PBM E-score
1,TGAACGAA,-0.234
2,ATACACCC,0.254
3,GGACCACA,0.0639
4,CGTTTTAG,-0.0485
5,ACGAAGTA,-0.0966
6,AAAGTGTT,-0.0765
7,GCTCAGGA,-0.206
8,GGACTGTA,0.0186
9,ACATCGCT,-0.221
10,CGGCAAAC,0.113
11,ACTCGGGG,0.185
12,AGGTTCCA,-0.166
13,AGGCAGAT,-0.188
14,CCTCCAGA,-0.0883
15,AATGCGGT,0.208
16,CTCCCATA,-0.103
17,ATCTCTTG,-0.16
18,GAGGGAAA,-0.297
19,GCTACGCC,0.0615
